The source of these data is patent publication US20150139975A1 (published 2015).

The assay addresses T1, C3b (UniProt P01024 23-667; P01024 partial chain).
T1 construct: Amine-coupled to a CM5 Biacore chip in the SPR assays; in solution in the cofactor assay; also called complement C3b
Put plainly: SPR (Biacore), C3b on a CM5 chip. An excerpt:
FIG. 3F—Surface plasmon resonance was used to monitor formation of the C3bBb (convertase) complex as factor D and factor B were flowed together over C3b that was amine-coupled to a CM5 (Biacore) sensor chip. The subsequent decline in response reflects decay of the complex as Bb is released from the chip surface. The rate of decay is accelerated by initiating (in this case 210 s into the natural decay process) a flow of reference FH or rFH. […] The control proteins, BSA and FH modules 19-20, have no effect on decay.
A general note: Surface plasmon resonance follows binding to a sensor surface in real time, without labels.

Chain of C3b (P01024 23-667 limits assumed, chain 1 of 2): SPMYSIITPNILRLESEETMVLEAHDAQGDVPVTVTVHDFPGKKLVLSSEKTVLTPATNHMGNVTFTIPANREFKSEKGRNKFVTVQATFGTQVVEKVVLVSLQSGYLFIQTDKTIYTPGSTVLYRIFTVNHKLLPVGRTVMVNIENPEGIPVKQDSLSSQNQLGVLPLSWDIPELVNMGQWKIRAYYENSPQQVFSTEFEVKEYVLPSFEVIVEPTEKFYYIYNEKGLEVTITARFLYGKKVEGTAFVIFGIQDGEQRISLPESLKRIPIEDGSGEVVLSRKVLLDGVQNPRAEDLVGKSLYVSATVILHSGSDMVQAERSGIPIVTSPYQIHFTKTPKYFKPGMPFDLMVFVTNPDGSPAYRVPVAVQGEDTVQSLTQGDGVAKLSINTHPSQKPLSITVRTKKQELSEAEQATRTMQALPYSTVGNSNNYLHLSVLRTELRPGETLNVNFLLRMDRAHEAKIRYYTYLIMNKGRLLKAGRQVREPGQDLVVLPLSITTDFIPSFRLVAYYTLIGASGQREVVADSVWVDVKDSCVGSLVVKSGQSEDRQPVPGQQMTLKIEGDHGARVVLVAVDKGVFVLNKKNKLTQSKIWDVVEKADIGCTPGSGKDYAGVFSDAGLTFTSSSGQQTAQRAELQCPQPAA
Chain of C3b (P01024 749-1663 limits assumed, chain 2 of 2): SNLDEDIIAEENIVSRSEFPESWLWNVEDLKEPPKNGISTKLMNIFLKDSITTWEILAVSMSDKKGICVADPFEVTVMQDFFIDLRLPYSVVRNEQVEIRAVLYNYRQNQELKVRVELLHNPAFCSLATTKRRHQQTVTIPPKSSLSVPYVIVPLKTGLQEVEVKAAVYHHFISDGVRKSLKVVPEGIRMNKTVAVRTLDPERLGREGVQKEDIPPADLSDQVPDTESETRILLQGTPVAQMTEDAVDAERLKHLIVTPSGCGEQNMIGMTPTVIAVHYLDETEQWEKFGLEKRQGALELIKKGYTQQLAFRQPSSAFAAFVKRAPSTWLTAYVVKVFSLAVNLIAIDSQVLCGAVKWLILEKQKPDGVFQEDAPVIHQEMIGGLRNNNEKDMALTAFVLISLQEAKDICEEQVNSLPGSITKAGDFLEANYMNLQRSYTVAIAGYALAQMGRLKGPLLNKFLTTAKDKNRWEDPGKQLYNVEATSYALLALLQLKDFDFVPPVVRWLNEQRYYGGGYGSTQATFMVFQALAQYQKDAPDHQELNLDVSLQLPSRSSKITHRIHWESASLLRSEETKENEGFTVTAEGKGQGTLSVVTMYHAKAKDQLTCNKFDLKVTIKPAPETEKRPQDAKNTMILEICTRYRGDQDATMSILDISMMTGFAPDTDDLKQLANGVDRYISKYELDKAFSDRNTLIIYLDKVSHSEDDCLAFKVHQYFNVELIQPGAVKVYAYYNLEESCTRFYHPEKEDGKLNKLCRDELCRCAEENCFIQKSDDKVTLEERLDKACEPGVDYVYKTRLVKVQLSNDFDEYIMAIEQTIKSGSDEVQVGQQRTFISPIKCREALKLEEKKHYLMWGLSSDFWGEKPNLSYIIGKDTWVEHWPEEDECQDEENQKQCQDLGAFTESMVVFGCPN

B1: factor B (enzyme, UniProt P00751 26-764, looked up)
chain: TPWSLARPQGSCSLEGVEIKGGSFRLLQEGQALEYVCPSGFYPYPVQTRTCRSTGSWSTLKTQDQKTVRKAECRAIHCPRPHDFENGEYWPRSPYYNVSDEISFHCYDGYTLRGSANRTCQVNGRWSGQTAICDNGAGYCSNPGIPIGTRKVGSQYRLEDSVTYHCSRGLTLRGSQRRTCQEGGSWSGTEPSCQDSFMYDTPQEVAEAFLSSLTETIEGVDAEDGHGPGEQQKRKIVLDPSGSMNIYLVLDGSDSIGASNFTGAKKCLVNLIEKVASYGVKPRYGLVTYATYPKIWVKVSEADSSNADWVTKQLNEINYEDHKLKSGTNTKKALQAVYSMMSWPDDVPPEGWNRTRHVIILMTDGLHNMGGDPITVIDEIRDLLYIGKDRKNPREDYLDVYVFGVGPLVNQVNINALASKKDNEQHVFKVKDMENLEDVFYQMIDESQSLSLCGMVWEHRKGTDYHKQPWQAKISVIRPSKGHESCMGAVVSEYFVLTAAHCFTVDDKEHSIKVSVGGEKRDLEIEVVLFHPNYNINGKKEAGIPEFYDYDVALIKLKNKLKYGQTIRPICLPCTEGTTRALRLPPTTTCQQQKEELLPAQDIKALFVSEEEKKLTRKEVYIKNGDKKGSCERDAQYAPGYDKVKDISEVVTPRFLCTGGVSPYADPNTCRGDSGGPLIVHKRSRFIQVGVISWGVVDVCKNQKRQKQVPAHARDFHINLFQVLPWLKEKLQDEDLGFL
notes: also called Bb (after cleavage by factor D)
Consider B1, for which the binding result is reported as “binds”.
